# Test results from the supplement of paper PMC6135742.
# “And” between values parts separate entries of the source, which are not always exact repeats. Equal entries are not always repeated. Structures can show the parent of a compound that is named as a salt. ± gives the standard deviation of the averaged measurements. The full ranking holds about 2,600 compounds; the median of “total cell number (DAPI+ nuclei) relative to DMSO vehicle control” is about -1.4, and the lowest 2% start at about -23. This is one part of the list.
# Test system: jimpy (Plp1 jimpy) mouse iPSC-derived oligodendrocyte progenitor cells
# Assay: total cell number (DAPI+ nuclei) relative to DMSO vehicle control (SDs above negative control mean); higher = more surviving cells
# Conditions: 10 µM; 3 days
row,SMILES,total cell number
1,C=CCc1cc(OC)c(O)c(C(=O)NCCO)c1 [Alibendol],-1.51
2,COc1cc2c(CCNC(C)=O)c[nH]c2cc1O [6-Hydroxymelatonin],-0.826
3,C#C[C@]1(O)CC[C@H]2[C@@H]3CCC4=CC(=O)CC[C@@H]4[C@H]3CC[C@@]21C [Norethindrone],-1.09
4,C#C[C@]1(OC(C)=O)CC[C@H]2[C@@H]3CCC4=C[C@@H](OC(C)=O)CC[C@@H]4[C@H]3CC[C@@]21C [Ethynodiol diacetate],-0.24
5,CC(C)[C@H](C(=O)Nc1ccc(C(=O)NO)cc1)c1ccccc1,-10.8
6,Nc1ccc(S(=O)(=O)Nc2ncccn2)cc1 [Sulfadiazine],2.06
7,Nc1ccc(O)c(C(=O)O)c1 [Mesalamine],-13
8,Clc1ccccc1CN1CCc2sccc2C1 [Ticlopidine HCl],2.96
9,CN(C)CCCN1c2ccccc2CCc2ccc(Cl)cc21 [Clomipramine hydrochloride],-8.36
10,CN(C)CCCN1c2ccccc2CCc2ccc(Cl)cc21 [Clomipramine HCl],-10.1
11,COC(=O)N1CCN(Cc2cccc(NC(=O)Nc3ccc(C)nc3)c2F)CC1,0.763
12,O=C1NC(=O)/C(=C\c2ccc3nccnc3c2)S1,-1.42
13,COC(=O)C1=C(C)NC(C)=C(C(=O)OC)C1c1ccccc1[N+](=O)[O-] [Nifedipine],-1.54 ± 0.42
14,CC(C)NC[C@H](O)COc1ccc(CCOCC2CC2)cc1 [Levobetaxolol HCl],0.39
15,COc1cc2c(cc1O)CC[C@@H]1[C@@H]2CC[C@]2(C)[C@@H](O)CC[C@@H]12 [2-Methoxyestradiol (2-MeOE2)],-10.2
16,COc1cc2c(cc1O)CC[C@@H]1[C@@H]2CC[C@]2(C)[C@@H](O)CC[C@@H]12 [2-methoxyestradiol],-5.21
17,CNC(=O)[C@H]1O[C@@H](n2cnc3c(NCc4ccc(N)cc4)ncnc32)[C@H](O)[C@@H]1O,-0.313
18,COc1cc(N2CCN(C)CC2)ccc1Nc1nccc(-c2cn(C)c3cnccc23)n1,-15.9
19,O=C(O)Cc1ccccc1Nc1c(Cl)cccc1Cl [Diclofenac Sodium],-1.22
20,O=C(O)Cc1ccccc1Nc1c(Cl)cccc1Cl [Diclofenac Diethylamine],0.298
21,O=C(O)Cc1ccccc1Nc1c(Cl)cccc1Cl [Diclofenac sodium],-2.2

row,SMILES,total cell number
1,O=C(O)Cc1ccccc1Nc1c(Cl)cccc1Cl [Diclofenac Potassium],-0.338
2,C[C@@H](c1ncncc1F)[C@](O)(Cn1cncn1)c1ccc(F)cc1F [Voriconazole],0.679 ± 1.6
3,C[C@@H]1CC(=O)NN=C1c1ccc(NN=C(C#N)C#N)cc1 [Levosimendan],-1.92
4,CNC(=O)c1ccc2cc([C@@]3(O)CCn4cncc43)ccc2c1 [TAK-700 (Orteronel)],0.9
5,C[N+](C)(C)CCO.[Br-] [Choline bromide],-1.23
6,N=c1ccn2c(n1)O[C@H]1[C@H](O)[C@@H](CO)O[C@H]12 [Ancitabine hydrochloride],-5.3
7,N=c1ccn2c(n1)O[C@H]1[C@H](O)[C@@H](CO)O[C@H]12 [Cyclocytidine HCl],-5.97
8,CCCCCCCC/C=C\CCCCCCCC(=O)NCc1ccc(O)c(OC)c1 [Olvanil],-4.4
9,CC(=O)Oc1cc(C(F)(F)F)ccc1C(=O)O [Triflusal],-0.71 ± 1.2
10,CC(C)Cc1ccc([C@H](C)C(=O)O)cc1 [S(+)-Ibuprofen],0.237
11,CS(=O)(=O)c1ccc([C@@H](O)[C@@H](CO)NC(=O)C(Cl)Cl)cc1 [Thiamphenicol],0.863
12,Cc1cncc(CN2CCC(=C3c4ccc(Cl)cc4CCc4cccnc43)CC2)c1 [Rupatadine Fumarate],-10.9
13,"O=c1[nH]cc(F)c(=O)[nH]1 [Fluorouracil (5-Fluoracil, 5-FU)]",-22.3
14,O=c1[nH]cc(F)c(=O)[nH]1 [5-Fluorouracil],-9.71
15,O=c1ncn2nc(Sc3ccc(F)cc3F)ccc2c1-c1c(Cl)cccc1Cl,-3.36
16,C[C@]12C=CC(=O)C=C1CC[C@@H]1[C@@H]2[C@@H](O)C[C@@]2(C)[C@H]1CC[C@]2(O)C(=O)CO [Prednisolone],5.42
17,Clc1ccc2c(c1)N=C(N1CCNCC1)c1ccccc1N2 [N-Desmethylclozapine],-5.78
18,CC(C)CCN1c2nc(Nc3cc(F)c(O)c(F)c3)ncc2N(C)C(=O)C1C (stereo not drawn),-9.12
19,O=C1NC(=O)/C(=C/c2ccc(-c3ccc(F)cc3O)o2)S1,-4.56 ± 0.43
20,Cc1cnc(Nc2ccc(N3CCN(C)CC3)cc2)nc1Nc1cccc(S(=O)(=O)NC(C)(C)C)c1,-12.1
21,OC[C@@H](O)[C@@H](O)CO [Erythritol],0.39

row,SMILES,total cell number
1,NC1(c2ccc(-c3nc4ccn5c(=O)[nH]nc5c4cc3-c3ccccc3)cc2)CCC1,-25.6
2,Cc1ccccc1/C=C/C1=NCCN1 [Metrazoline oxalate],-2.7
3,Cc1cccc(-c2[nH]c(C(C)(C)C)nc2-c2ccc3nccnc3c2)n1,-2.87 and -3.33
4,NC(=O)c1noc([C@H](CCCC2CCCCC2)CC(=O)NO)n1,-2.62
5,CC[N+](CC)(CC)CC [Tetraethylammonium chloride],0.407
6,COc1ccc(CCN(C)CCc2ccc(OC)c(OC)c2)cc1OC [YS-035 hydrochloride],0.198
7,C[C@H](N[C@@H](CCc1ccccc1)C(=O)O)C(=O)N1CCC[C@H]1C(=O)O [Enalaprilat Dihydrate],-0.652
8,C[C@H](N[C@@H](CCc1ccccc1)C(=O)O)C(=O)N1CCC[C@H]1C(=O)O [Enalaprilat dihydrate],-1.04
9,CCN(CC)CCNC(=O)c1ccc(NS(C)(=O)=O)cc1 [Sematilide monohydrochloride monohydrate],-0.282
10,NC(=O)N1CCC(CC(=O)N2CCC([C@H]3c4ncc(Br)cc4CCc4cc(Cl)cc(Br)c43)CC2)CC1 [Lonafarnib],-9.54
11,CN(C)[C@@H]1C(O)=C(C(N)=O)C(=O)[C@@]2(O)C(O)=C3C(=O)c4c(O)cccc4[C@@](C)(O)[C@H]3C[C@@H]12 [Tetracycline HCl],1.62
12,O=C(O)C1CCCNC1 (racemic) [(±)-Nipecotic acid],-1.95
13,O=C(Nc1cc(C(F)(F)F)cc(C(F)(F)F)c1)c1cc(Cl)ccc1O,-4.55
14,CC(C)(N)c1ncc(-c2ccc(OC(F)(F)F)cc2)[nH]1,-3.28
15,O=C1/C(=C/c2cccs2)CC/C1=C\c1cccs1,-1.85
16,COCCCC/C(=N\OCCN)c1ccc(C(F)(F)F)cc1 [Fluvoxamine maleate],-4.97 ± 5.2
17,COC(=O)[C@H](c1ccccc1Cl)N1CCc2sccc2C1 [Clopidogrel],3.22
18,C[C@]12CCC(=O)C=C1CC[C@@H]1[C@@H]2C(=O)C[C@@]2(C)[C@H]1CC[C@]2(O)C(=O)CO [Cortisone],-1.47
19,O=C(COc1ccc(C(=O)c2ccccc2)cc1)NC1CCN(Cc2ccccc2)CC1 [AdipoRon],1.46
20,CC1(C)CCC(c2ccc(Cl)cc2)=C(CN2CCN(c3ccc(C(=O)NS(=O)(=O)c4ccc(N[C@H](CCN5CCOCC5)CSc5ccccc5)c(S(=O)(=O)C(F)(F)F)c4)cc3)CC2)C1 [ABT-263 (Navitoclax)],-16.7
21,O=C(NOCC1CC1)c1ccc(F)c(F)c1Nc1ccc(I)cc1Cl,-11.8

row,SMILES,total cell number
1,Nc1nc(F)nc2c1ncn2[C@@H]1O[C@H](COP(=O)(O)O)[C@@H](O)[C@@H]1O [Fludarabine Phosphate],-8.7
2,CCOC(=O)N1CCC(=C2c3ccc(Cl)cc3CCc3cccnc32)CC1 [Loratadine],-0.828 ± 1.3
3,Oc1c(Br)cc(Br)c2cccnc12 [Broxyquinoline],0.775
4,Nc1ccc2ncnc(NCCc3ccc(Oc4ccccc4)cc3)c2c1,-11
5,CN1CCN(S(=O)(=O)c2ccc(-c3cnc(N)c(C(=O)Nc4cccnc4)n3)cc2)CC1,-11
6,COc1ccc(-c2coc3cc(O)ccc3c2=O)cc1 [Formononetin],1.27
7,CS(=O)(=O)c1ccc(C(=O)Nc2ccc(Cl)c(-c3ccccn3)c2)c(Cl)c1 [Vismodegib (GDC-0449)],-1.63
8,COc1ccc(CC(C)NCC(O)c2ccc(O)c(NC=O)c2)cc1 (stereo not drawn) [Formoterol],-0.886
9,COc1ccc(CC(C)NCC(O)c2ccc(O)c(NC=O)c2)cc1 (stereo not drawn) [Formoterol Hemifumarate],2.35
10,CC(C)C[C@H](NC(=O)[C@H](Cc1ccccc1)NC(=O)c1cnccn1)B(O)O [Bortezomib (PS-341)],-20.2
11,O=C(OCCN1CCOCC1)C1(c2ccccc2)CCCCC1,-0.938
12,"Cc1ccc2c(c1)C(=O)C1(O)CCN(c3ccccc3)C1=N2 (single isomer, unassigned; (-)) [(-)-Blebbistatin]",-14.8
13,CC(C)(Oc1ccc(CCNC(=O)c2ccc(Cl)cc2)cc1)C(=O)O [Bezafibrate],0.23 ± 0.27
14,OCCN1CCN(CCCN2c3ccccc3Sc3ccc(C(F)(F)F)cc32)CC1 [Fluphenazine dihydrochloride],-7.98
15,c1ccc(CC2=NCCN2)cc1 [Tolazoline HCl],0.39
16,NCCCCC(=O)O [5-Aminovaleric acid hydrochloride],-2.24
17,O=C(O)CCc1nc(-c2ccccc2)c(-c2ccccc2)o1 [Oxaprozin],-0.844 ± 0.56
18,Clc1ccc2c(c1)C(N1CCNCC1)=Nc1ccccc1O2 [Amoxapine],-5.64
19,O=C1c2ccccc2C(=O)C1c1ccccc1 [Phenindione],-0.616
20,CC(C)[C@@H](C)/C=C/[C@@H](C)[C@H]1CC[C@H]2C3=CC=C4C[C@@H](O)CC[C@]4(C)[C@H]3CC[C@]12C [Ergosterol],-0.31
